Experimental data from the supplement of paper PMC4604168 (melanoma cell lines).
This is one part of the list. Single values are uncertain, as repeats are few or missing.

These compounds were tested on A101D (assay: cell count relative to DMSO control; melanoma cells; higher = more viable cells). Conditions: library dose: low library concentration; 72 h; first compound 0.4 µM.
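Also: cell number obtained by counting DAPI-stained nuclei in high-throughput microscope images with image analysis software, screen run in 1,536-well plates.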

Compound	cell count [%]
Cn1sc(=O)n(Cc2ccccc2)c1=O + Oc1nc(-c2ccc(C(F)(F)F)cc2)nc2c1CSCC2 [XAV939] (partner dose 2 µM)	90.5
C[C@@H](N)c1ccc(C(=O)Nc2ccnc3[nH]ccc23)cc1 + CC(C)CCN1c2nc(Nc3cc(F)c(O)c(F)c3)ncc2N(C)C(=O)C1C [BID1870] (partner dose 0.2 µM)	66.2
CCCCCCCCCCCCCCCCCCOP(=O)([O-])OC1CC[N+](C)(C)CC1 [Perifosine] + Oc1cc(-c2nc(-c3ccccc3)[nH]c2-c2ccncc2)ccc1Cl [L779450] (partner dose 0.2 µM)	96.2
C[C@@H](N)c1ccc(C(=O)Nc2ccnc3[nH]ccc23)cc1 + COc1ccc(COc2ccc(Cc3cnc(N)nc3N)cc2OC)cc1 [GW2580] (partner dose 1 µM)	85.6
CCCCCCCCCCCCCCCCCCOP(=O)([O-])OC1CC[N+](C)(C)CC1 [Perifosine] + Cn1cc(/C=C2\C(=O)Nc3cccnc32)c2ccccc21 [GW441756] (partner dose 0.4 µM)	91.3
Cn1sc(=O)n(Cc2ccccc2)c1=O + COc1ccc(-c2ccc3c(N4CCOCC4)nc(N4C[C@@H](C)O[C@@H](C)C4)nc3n2)cc1CO [KU0063794] (partner dose 0.02 µM)	92.2
C[C@@H](N)c1ccc(C(=O)Nc2ccnc3[nH]ccc23)cc1 + CCN(CC)CCNC(=O)c1c(C)[nH]c(/C=C2\C(=O)Nc3ccc(F)cc32)c1C [sunitinib] (partner dose 0.4 µM)	104
Cn1sc(=O)n(Cc2ccccc2)c1=O + COc1ccc(COc2ccc(Cc3cnc(N)nc3N)cc2OC)cc1 [GW2580] (partner dose 1 µM)	105
C[C@@H](N)c1ccc(C(=O)Nc2ccnc3[nH]ccc23)cc1 + Cn1nnc2c(C(N)=O)ncn2c1=O [temozolomide] (partner dose 2 µM)	77.6
Cn1sc(=O)n(Cc2ccccc2)c1=O + C=CCNC1=C2C[C@@H](C)C[C@H](OC)[C@H](O)[C@@H](C)/C=C(\C)[C@H](OC(N)=O)[C@@H](OC)/C=C\C=C(/C)C(=O)NC(=CC1=O)C2=O [Tanespimycin] (partner dose 0.002 µM)	92.2
CCCCCCCCCCCCCCCCCCOP(=O)([O-])OC1CC[N+](C)(C)CC1 [Perifosine] + c1cc(-c2cnn3cc(-c4ccc(OCCN5CCCCC5)cc4)cnc23)ccn1 [Dorsomorphin] (partner dose 0.4 µM)	95.7
CCCCCCCCCCCCCCCCCCOP(=O)([O-])OC1CC[N+](C)(C)CC1 [Perifosine] + CO[C@H]1C[C@@H]2CC[C@@H](C)[C@@](O)(O2)C(=O)C(=O)N2CCCC[C@H]2C(=O)O[C@H]([C@H](C)C[C@@H]2CC[C@@H](OCCO)[C@H](OC)C2)CC(=O)[C@H](C)/C=C(\C)[C@@H](O)[C@@H](OC)C(=O)[C@H](C)C[C@H](C)/C=C/C=C/C=C/1C [everolimus] (partner dose 0.02 µM)	104
Cn1sc(=O)n(Cc2ccccc2)c1=O + C=C(c1ccc(C(=O)O)cc1)c1cc2c(cc1C)C(C)(C)CCC2(C)C [Bexarotene] (partner dose 2 µM)	112
C[C@@H](N)c1ccc(C(=O)Nc2ccnc3[nH]ccc23)cc1 + COc1cc2ncnc(Nc3ccc(Oc4ccccc4)cc3)c2cc1OC [SrcI1] (partner dose 2 µM)	91.8
Cn1sc(=O)n(Cc2ccccc2)c1=O + CCc1ccc(CCOc2ccc(CC3SC(=O)NC3=O)cc2)nc1 [pioglitazone] (partner dose 2 µM)	105
C[C@@H](N)c1ccc(C(=O)Nc2ccnc3[nH]ccc23)cc1 + CN(c1ncccc1CNc1nc(Nc2ccc3c(c2)CC(=O)N3)ncc1C(F)(F)F)S(C)(=O)=O [PF562271] (partner dose 0.08 µM)	86.7
Cn1sc(=O)n(Cc2ccccc2)c1=O + O=S(=O)(c1ccccc1)N(CC(F)(F)F)c1ccc(C(O)(C(F)(F)F)C(F)(F)F)cc1 [T0901317] (partner dose 1.4 µM)	99.8

Compound	cell count [%]
CCCCCCCCCCCCCCCCCCOP(=O)([O-])OC1CC[N+](C)(C)CC1 [Perifosine] + CCN(CC)CCCCNc1ncc2cc(-c3cc(OC)cc(OC)c3)c(NC(=O)NC(C)(C)C)nc2n1 [PD173074] (partner dose 0.1 µM)	152
C[C@@H](N)c1ccc(C(=O)Nc2ccnc3[nH]ccc23)cc1 + O=C1NC(=O)/C(=C/c2ccc(-c3ccc(F)cc3O)o2)S1 [AS252424] (partner dose 1 µM)	99.9
C[C@@H](N)c1ccc(C(=O)Nc2ccnc3[nH]ccc23)cc1 + COc1ccc2c(c1)CCC1C2CCC2(C)C(NCCCCCCN3C(=O)C=CC3=O)CCC12 [U73122] (partner dose 0.4 µM)	90.9
CCCCCCCCCCCCCCCCCCOP(=O)([O-])OC1CC[N+](C)(C)CC1 [Perifosine] + COc1ccc(COc2ccc(Cc3cnc(N)nc3N)cc2OC)cc1 [GW2580] (partner dose 1 µM)	104
CCCCCCCCCCCCCCCCCCOP(=O)([O-])OC1CC[N+](C)(C)CC1 [Perifosine] + COC(=O)c1sccc1S(=O)(=O)Nc1ccc(Nc2ccccc2)cc1OC [GSK0660] (partner dose 1 µM)	103
C[C@@H](N)c1ccc(C(=O)Nc2ccnc3[nH]ccc23)cc1 + O=C(O)C(=O)Nc1sc2c(c1C(=O)O)CCNC2 [TCS401] (partner dose 1.66667 µM)	84.1
Cn1sc(=O)n(Cc2ccccc2)c1=O + COc1ccc2c(c1)CCC1C2CCC2(C)C(NCCCCCCN3C(=O)C=CC3=O)CCC12 [U73122] (partner dose 0.4 µM)	89.9
Cn1sc(=O)n(Cc2ccccc2)c1=O + O=C(O)[C@@H]1[O][Sb](=[O])([O][Sb]2(=[O])[O][C@H]([C@H](O)CO)[C@H](O)[C@H](C(=O)O)[O]2)[O][C@H]([C@H](O)CO)[C@@H]1O [stibogluconate] (partner dose 2 µM)	99.9
CCCCCCCCCCCCCCCCCCOP(=O)([O-])OC1CC[N+](C)(C)CC1 [Perifosine] + CCCCCCCCCCCC1=C(O)C(=O)C=C(O)C1=O [Embelin] (partner dose 1.2 µM)	104
C[C@@H](N)c1ccc(C(=O)Nc2ccnc3[nH]ccc23)cc1 + COc1cc(N2CCC(N3CCN(C)CC3)CC2)ccc1Nc1ncc(Cl)c(Nc2ccccc2S(=O)(=O)C(C)C)n1 [NVP-TAE684] (partner dose 0.08 µM)	92.6
CCCCCCCCCCCCCCCCCCOP(=O)([O-])OC1CC[N+](C)(C)CC1 [Perifosine] + Cn1c(=O)n(-c2ccc(C(C)(C)C#N)cc2)c2c3cc(-c4cnc5ccccc5c4)ccc3ncc21 [NVP-BEZ235] (partner dose 0.004 µM)	76.6
CCCCCCCCCCCCCCCCCCOP(=O)([O-])OC1CC[N+](C)(C)CC1 [Perifosine] + COc1cc2ncnc(Nc3ccc(Oc4ccccc4)cc3)c2cc1OC [SrcI1] (partner dose 2 µM)	81.8
Cn1sc(=O)n(Cc2ccccc2)c1=O + Nc1ccn([C@@H]2O[C@H](CO)[C@@H](O)C2(F)F)c(=O)n1 [gemcitabine] (partner dose 0.0004 µM)	102
Cn1sc(=O)n(Cc2ccccc2)c1=O + COC(=O)c1sccc1S(=O)(=O)Nc1ccc(Nc2ccccc2)cc1OC [GSK0660] (partner dose 1 µM)	110
C[C@@H](N)c1ccc(C(=O)Nc2ccnc3[nH]ccc23)cc1 + Oc1nc(-c2ccc(C(F)(F)F)cc2)nc2c1CSCC2 [XAV939] (partner dose 2 µM)	88.3
C[C@@H](N)c1ccc(C(=O)Nc2ccnc3[nH]ccc23)cc1 + CCc1ccc(CCOc2ccc(CC3SC(=O)NC3=O)cc2)nc1 [pioglitazone] (partner dose 2 µM)	96.7
